The whole screen tested about 360,000 compounds, of which about 16,000 (4.4%) were called active. The shares of active, inactive and inconclusive entries below differ from those in the screen. Calls follow the shape of the dose curve; as a rule, active = well fitted inhibition curve with a large enough effect; inconclusive = small, poorly fitted or top-dose-only effect; inactive = no such curve, though single readings can be large or run the other way. Potencies of inconclusive entries are doubtful fits and often do not repeat.
target: Bromodomain adjacent to zinc finger domain protein 2B (Homo sapiens) (UniProt Q9UIF8); assay: qHTS Assay for Inhibitors of BAZ2B; details: AlphaScreen BAZ2B-H3K14Ac peptide displacement; series mostly up to 114 µM; also: nearly all actives have a fitted effect of over 60% in size
Method in brief: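 AlphaScreen displacement of biotin-H3(5-23)K14Ac peptide (50 nM final) from BAZ2B (50 nM final) in PBS pH 7.4, 0.01% Tween-20; complex preformed 30 min RT, then compounds (top 110 uM) 30 min RT, beads 20 min dark.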
Potency is read from the fitted curve at half-maximal effect; tags tell the direction and shape of the fitted curve.

UniProt Q9UIF8, sequence (Q9UIF8 whole entry, looked up, the tested form may be a part): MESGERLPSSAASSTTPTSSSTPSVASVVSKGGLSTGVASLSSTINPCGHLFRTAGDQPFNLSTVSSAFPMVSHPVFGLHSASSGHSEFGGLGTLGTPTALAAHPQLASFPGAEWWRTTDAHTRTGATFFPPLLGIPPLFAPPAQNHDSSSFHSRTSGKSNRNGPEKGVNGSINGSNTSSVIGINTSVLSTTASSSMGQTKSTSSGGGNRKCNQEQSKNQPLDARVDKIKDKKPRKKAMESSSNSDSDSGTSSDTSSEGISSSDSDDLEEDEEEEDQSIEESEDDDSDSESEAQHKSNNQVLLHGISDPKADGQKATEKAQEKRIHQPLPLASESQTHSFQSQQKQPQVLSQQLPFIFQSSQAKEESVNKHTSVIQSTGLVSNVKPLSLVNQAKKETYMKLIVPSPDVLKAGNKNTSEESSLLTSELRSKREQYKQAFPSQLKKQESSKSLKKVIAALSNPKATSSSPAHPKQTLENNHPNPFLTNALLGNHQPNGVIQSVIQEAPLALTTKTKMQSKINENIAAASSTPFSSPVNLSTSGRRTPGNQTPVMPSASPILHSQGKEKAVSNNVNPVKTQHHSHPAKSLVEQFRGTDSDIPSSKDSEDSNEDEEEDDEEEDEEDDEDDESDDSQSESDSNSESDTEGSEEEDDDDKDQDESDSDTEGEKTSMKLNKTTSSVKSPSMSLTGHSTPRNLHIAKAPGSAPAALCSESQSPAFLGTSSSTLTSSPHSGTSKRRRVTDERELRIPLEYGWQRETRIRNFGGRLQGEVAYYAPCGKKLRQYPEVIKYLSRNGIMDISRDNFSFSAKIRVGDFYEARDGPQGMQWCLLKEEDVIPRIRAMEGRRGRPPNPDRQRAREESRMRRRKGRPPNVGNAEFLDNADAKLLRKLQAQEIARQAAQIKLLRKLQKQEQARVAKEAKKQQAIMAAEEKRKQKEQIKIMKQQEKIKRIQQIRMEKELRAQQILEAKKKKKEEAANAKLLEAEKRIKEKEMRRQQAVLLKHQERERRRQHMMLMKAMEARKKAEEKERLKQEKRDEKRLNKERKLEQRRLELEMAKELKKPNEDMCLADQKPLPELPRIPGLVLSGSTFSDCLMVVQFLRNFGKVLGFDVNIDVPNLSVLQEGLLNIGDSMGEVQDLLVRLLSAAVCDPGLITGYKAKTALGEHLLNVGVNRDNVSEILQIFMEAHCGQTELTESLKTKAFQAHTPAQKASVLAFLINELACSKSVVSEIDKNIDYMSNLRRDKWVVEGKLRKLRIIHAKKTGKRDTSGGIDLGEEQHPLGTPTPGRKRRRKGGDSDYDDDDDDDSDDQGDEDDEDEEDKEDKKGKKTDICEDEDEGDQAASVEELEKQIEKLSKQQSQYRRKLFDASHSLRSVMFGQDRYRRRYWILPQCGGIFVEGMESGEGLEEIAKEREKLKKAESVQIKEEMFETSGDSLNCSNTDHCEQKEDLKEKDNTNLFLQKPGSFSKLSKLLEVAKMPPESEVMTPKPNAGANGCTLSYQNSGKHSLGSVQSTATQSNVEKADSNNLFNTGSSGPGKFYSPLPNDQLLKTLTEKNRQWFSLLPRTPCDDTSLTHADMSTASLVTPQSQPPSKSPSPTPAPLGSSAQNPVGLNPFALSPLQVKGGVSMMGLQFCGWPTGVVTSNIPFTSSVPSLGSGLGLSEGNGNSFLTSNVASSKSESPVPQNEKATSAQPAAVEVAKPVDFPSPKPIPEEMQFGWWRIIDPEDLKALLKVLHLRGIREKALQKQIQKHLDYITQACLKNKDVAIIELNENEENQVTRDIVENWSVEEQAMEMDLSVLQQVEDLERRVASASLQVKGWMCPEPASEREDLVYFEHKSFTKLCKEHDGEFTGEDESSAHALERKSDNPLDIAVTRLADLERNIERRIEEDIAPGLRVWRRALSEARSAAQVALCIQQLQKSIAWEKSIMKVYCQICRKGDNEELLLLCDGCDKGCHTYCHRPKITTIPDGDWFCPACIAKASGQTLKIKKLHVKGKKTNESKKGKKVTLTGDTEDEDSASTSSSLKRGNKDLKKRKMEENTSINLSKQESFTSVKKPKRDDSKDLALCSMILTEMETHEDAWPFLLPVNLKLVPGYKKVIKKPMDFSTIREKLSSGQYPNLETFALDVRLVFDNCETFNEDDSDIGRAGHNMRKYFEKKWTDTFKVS

SMILES	Potency
O=C(Nc1cccc(Cl)c1)c1csnn1	inconclusive: 89.1 µM [inhibitor, single point]
O=C1C(c2ccccc2)=[N+]([O-])c2ccccc21	active: 10 µM
Cc1cc(C)c(NC(=S)NCCCSC2CCCCC2)c(C)c1	inconclusive: 25.1 µM [inhibitor, partial curve]
Cc1ccccc1CC(=O)Nc1cc(C(C)(C)C)on1	inactive
CCCCN1CC(=O)N2[C@H]3c4ccc(OC)cc4OC[C@@H]3[C@H](c3ccccc3)[C@]2(C)C1=O	inconclusive: 6.31 µM [inhibitor, single point]
Cc1cc(C(=O)COc2cccc([N+](=O)[O-])c2)c(C)n1C1CC1	inconclusive: 79.4 µM [inhibitor, single point]
NOCC(=O)O	inconclusive: 50.1 µM [inhibitor, partial curve]
N#C/C(=C/c1ccccc1[N+](=O)[O-])C(=O)NCc1ccco1	inconclusive: 89.1 µM [inhibitor, single point]
Cc1ccccc1OCC(=O)N/N=C/c1ccc(N2CCOCC2)o1	inconclusive: 89.1 µM [inhibitor, single point]
Cc1cc(NC(=O)c2cccc3ccccc23)cc(C)c1OCC(=O)N1CCOCC1	inconclusive: 11.2 µM [inhibitor, single point]
CCCN1CCCc2cc(CN(CCCN3CCOCC3)C(=O)Nc3ccc(CC)cc3)ccc21	active: 8.91 µM
COC(=O)c1ccc(OCCCCN2CC(C)OC(C)C2)cc1 (centres undefined)	active: 79.4 µM
Cc1ccc2nc3c(cc2c1)c(NC(=O)c1ccccn1)nn3CC(C)C	inconclusive: 100 µM [inhibitor, single point]
Cc1ccc2c(c1)C1OCCC1C1N2C(=O)C2C(C(=O)O)C3C=CC21O3 (centres undefined)	inconclusive: 79.4 µM [inhibitor, partial curve]
O=C(CSc1nc2c([nH]c3ccccc32)c(=O)n1-c1ccccc1)N1CCCC1	inconclusive: 79.4 µM [inhibitor, single point]
O=C(c1ccc(C(F)(F)F)cc1)c1c[nH]c(C(=O)NCCCn2ccnc2)c1	inconclusive: 79.4 µM [inhibitor, single point]
COc1ccc2c(c1)c(=O)oc1c(C)c(OCC(=O)N3CCc4ccccc4C3)ccc12	inactive
CN(C)S(=O)(=O)c1cccc(NC(=O)c2ccc(Sc3nncn3C)c([N+](=O)[O-])c2)c1	inconclusive: 50.1 µM [inhibitor, partial curve]
CCOC(=O)N1CCN(C(=O)c2ccc(Cn3c(=S)[nH]c4cc5c(cc4c3=O)OCO5)cc2)CC1	inactive
